# In publication PMC12040169 (PLOS Biology, 2025):
# Some of the results follow.
# System: T1, C. trachomatis L2/434/Bu expressing GFP (CTL2-GFP)
# T1 construct: L2/434/Bu GFP intracellular growth in HeLa cells
# Set-up: species or system HeLa; C. trachomatis total inclusion area by high-content imaging, normalised to DMSO
# Conditions: total inclusion area; 28.5 h, 10 µM; inhibitor
# Procedure, shortened: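 Host cell viability was gauged from Hoechst-stained nuclei counts, while chlamydial growth was taken from total inclusion area and inclusion number per well. Cells were fixed and imaged by high-content microscopy once bulk GFP and resorufin fluorescence had been measured.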
row,Structure (SMILES),% of control remaining
1,CC1=CCC(C(=O)O)C(C(=O)Nc2cccnc2)C1 (stereo not shown) [CBK265895],94.2504
2,O=C(NC1(c2ccccc2)CC1)c1ccc(-n2cnnc2)cc1 [CBK282778],102.39
3,CC(C)(C)OC(=O)NCc1ccc(CNCc2ccccc2Br)cc1 [CBK056701],75.616
4,Cn1cc([C@@H]2CN(Cc3cccs3)C[C@H]2N)c2ccncc21 [CBK285320],109.868
5,NS(=O)(=O)c1ccc(NC(=O)CSc2ccc([N+](=O)[O-])cn2)cc1 [CBK269002],47.2302
6,O=S(=O)(c1cc(Cl)ccc1Cl)N1CCSC1 [CBK097980],106.029
7,O=c1[nH]c2c(c(=O)[nH]1)[C@H]1[C@H](O)[C@H](O)C[C@H]1[C@@H](c1ccccc1)N2 [CBK303239],82.9078
8,Cc1nn(CC(=O)C(C)(C)C)c(=O)c2cc3sccc3n12 [CBK284111],89.6248
9,CC(C)(C)C(=O)Nc1ccc(Cc2ccc(NC(=O)C(C)(C)C)c(C(=O)O)c2)cc1C(=O)O [CBK261393],95.1092
10,C=CCOc1ccc(-c2nn(-c3ccccc3)cc2/C=C2/SC(=S)N(CC(=O)O)C2=O)c(C)c1 [CBK265062],108.802
11,CC(=O)c1c(C)n(O)c2ccc(Cl)cc2c1=O [CBK217746],81.7522
12,O=C1CCc2cccc(OCCOc3nccnc3N3CCNCC3)c21 [CBK200001G],90.1889
13,CCN1CCCC(NC(=O)COc2nn(C)c3nc(C)cc(C)c23)C1 (stereo not shown) [CBK305224],30.4379
14,O=c1[nH]ccn1CCNc1ccc(-c2cccc(Cl)c2Cl)cn1 [CBK037745],133.86
15,COCC1(C(=O)N(C)Cc2nnc(-c3ccccc3)o2)CCC1 [CBK306987],79.5808
16,O=C(C1CC1)N1CCC(Cn2nc(-c3cccs3)ccc2=O)CC1 [CBK284039],101.463
17,COc1ccc(NC(=O)C2CCCCC2C(=O)O)c(C)c1 (stereo not shown) [CBK270301],68.7176
18,O=C(O)C1CC(O)CN1S(=O)(=O)c1ccc([N+](=O)[O-])cc1 (stereo not shown) [CBK266158],120.424
19,O=C(CCN1C(=O)[C@@H]2Cc3ccccc3CN2C1=O)N[C@H](C(=O)O)c1ccccc1 [CBK286751],86.4476
20,COCCN1CCN(C(=O)NCCc2c(C)[nH]c3ccc(Cl)cc23)CC1 [CBK307637],62.034
21,CN1CCC2(CC1)CC(NC(=O)c1ccco1)c1ccccc1O2 (stereo not shown) [CBK283804],82.1799
22,COc1ccc(-c2nc(NC(=O)CC#N)cnc2-c2ccc(F)cc2)cc1 [CBK037198],129.769
